Assay results reported in PubChem BioAssay AID624296 (National Center for Advancing Translational Sciences (NCATS), 2012).
Out of some 350,000 compounds screened, about 9,900 (2.8%) were called active. Inconclusive results, whose numbers are uncertain, are shown with a selection of clear calls. Calls follow the shape of the dose curve; as a rule, active = well fitted activation curve with a large enough effect; inconclusive = small, poorly fitted or top-dose-only effect; inactive = no such curve, though single readings can be large or run the other way. Potencies of inconclusive entries are left out as doubtful fits.

assay: A quantitative high throughput screen for small molecules that induce DNA re-replication in MCF 10a normal breast cells.; also: nearly all actives have a fitted effect of over 50% in size; as to activity, positive = re-replication: % of control where 0% means no effect; details: MCF 10A DNA re-replication, Hoechst nuclear intensity, 48 h; activity, positive = re-replication: at 46.1 µM (top of the series)
Potency is read from the fitted curve at half-maximal effect; tags tell the direction and shape of the fitted curve.

| SMILES | Potency | activity, positive = re-replication |
| --- | --- | --- |
| COCCn1nnnc1C(c1ccc(OC)c(OC)c1)N1CCN(c2nc3ccccc3s2)CC1 (centres undefined) | inconclusive [activator, single point] |  |
| COc1ccc(-c2cc(C(=O)N/N=C/c3sccc3C)c3ccccc3n2)c(OC)c1 | inconclusive [activator, full curve] |  |
| C/C(=N\NC(=O)CSCc1ccccc1Cl)c1cc(O)ccc1O | inconclusive [activator, single point] |  |
| O=C(CSc1nnc(CNc2ccc(F)cc2)o1)N1CCCc2ccccc21 | inconclusive [activator, single point] |  |
| Cc1ccc(S(=O)(=O)N2CCCC2CNC(=O)C(=O)NCc2ccccn2)cc1 (centres undefined) |  | inactive: -21.1% |
| Cc1ccc(NC(=O)c2sc3ccccc3c2Cl)nc1 | inconclusive [activator, partial curve, poor fit] |  |
| CN(C(=O)c1cccc(NC(=O)Cc2cccc(NC(=O)C3CCCN(C(=O)C4CCC4)C3)c2)c1)C1CCC1 (centres undefined) |  | inactive: 20.8% |
| Cc1cc(N(C)C)c(C#N)c(=O)[nH]1 | inconclusive [activator, partial curve] |  |
| COc1cc2c(cc1N)-c1ccc(N)cc1C2 |  | inactive: 4.91% |
| O=C(CSc1nc2ccccc2c(=O)n1CCCN1CCOCC1)Nc1cccc(S(=O)(=O)N2CCCCCC2)c1 | inconclusive [activator, single point] |  |
| CCN1CCN(c2nc3c(C)cccn3c(=O)c2/C=C(\C#N)C(=O)NC)CC1 | active: 5.8 µM |  |
| O=C(O)c1cnccn1 |  | inactive: -6.04% |
| COc1ccc(Nc2nc(-c3cccs3)nc3ccccc23)cc1 | active: 16.4 µM |  |
| Oc1ccc(-c2csc(Nc3cccc4ccccc34)n2)cc1O | inconclusive [activator, single point] |  |
| CCn1c(SCC(=O)Nc2cc(C)on2)nc2c([nH]c3ccccc32)c1=O | inconclusive [activator, single point] |  |
| c1ccc(Cn2nnnc2C(c2ccccn2)N2CCN(c3ccccc3)CC2)cc1 (centres undefined) |  | inactive: 3.77% |
| Cc1onc(-c2ccccc2Cl)c1C(=O)OCC(=O)N1CCN(c2ccccc2)CC1 | inconclusive [activator, partial curve] |  |
| COc1cccc(N=c2oc3ccc(OC)cc3cc2-c2nc3ccccc3[nH]2)c1 | inconclusive [activator, partial curve] |  |
| COc1ccc(S(=O)(=O)N2CCC(C(=O)N[C@@H](C)C(=O)NC3CC3)CC2)cc1 |  | inactive: 2.74% |
| Nc1nc2n(n1)C(c1ccc(F)cc1)CC(c1ccc(F)cc1)N2 (centres undefined) |  | inactive: 1.44% |
| O=C(O)c1ccc(CSc2nc(-c3ccc(Cl)cc3)cc(C(F)(F)F)n2)cc1 | inconclusive [activator, single point] |  |
| COCCNC(=O)/C(C#N)=C/c1ccc(-c2ccc(S(=O)(=O)N3CCOCC3)cc2)o1 | inconclusive [activator, partial curve, poor fit] |  |
| CCCOC(=O)c1ccc(NC(=O)c2ccccc2[N+](=O)[O-])cc1 |  | inactive: -4.27% |

| SMILES | Potency | activity, positive = re-replication |
| --- | --- | --- |
| COc1cc(NC(=O)C2CC3CCC2C3)c(OC)cc1Cl (centres undefined) | inconclusive [activator, full curve, poor fit] |  |
| COc1cc(-c2noc(C3CCCN(S(=O)(=O)c4cccc(Cl)c4)C3)n2)cc(OC)c1OC (centres undefined) | inconclusive [activator, partial curve, poor fit] |  |
| Cc1csc(CNc2ncnc3ccc(-c4ccc5c(c4)OCO5)cc23)c1 | inconclusive [activator, single point] |  |
| COc1ccc(N2CCN(S(=O)(=O)c3ccc4c(c3)NC(=O)C(C)S4)CC2)cc1 (centres undefined) | inconclusive [activator, single point] |  |
| CN(C)CCN[C@H]1CCC2C3CC=C4C[C@@H](O)CC[C@]4(C)C3CC[C@@]21C (some centres undefined) | active: 20.6 µM |  |
| COc1cc(/C=C2/SC(=S)N(CC3CCCO3)C2=O)ccc1O (centres undefined) |  | inactive: 18.9% |
| COc1ccc(S(=O)(=O)N2CCN(Cc3cc4c(cc3Br)OCCO4)CC2)cc1 |  | inactive: 24.1% |
| COc1ccc(-c2noc(CN(C(=O)c3c(-c4ccccc4Cl)noc3C)C(C)C)n2)cc1 | inconclusive [activator, partial curve, poor fit] |  |
| COc1ccccc1OCc1nc2ccccc2n1C |  | inactive: -0.136% |
| CCN(C(=O)COC(=O)c1ccc2ccccc2n1)c1c(N)n(Cc2ccccc2)c(=O)[nH]c1=O |  | inactive: 0.995% |
| COc1ccc(Cc2nnc(NC(=O)c3ccccc3[N+](=O)[O-])s2)cc1 | active: 23.1 µM |  |
| O=C(CC1Sc2ccccc2NC1=O)NNc1ccc(F)cc1 (centres undefined) | inconclusive [activator, single point] |  |
| Cc1ccc2nc(-c3ccncc3)cc(C(=O)NCCc3ccc(F)cc3)c2c1 | inconclusive [activator, single point] |  |
| COc1ccc(C(=O)NCCOc2cccc(Oc3ccccc3)c2)cc1OC |  | inactive: 6.27% |
| COc1ccc(/C=C2/SC(=S)N(CCC(=O)N3CCN(C)CC3)C2=O)cc1 | inconclusive [activator, partial curve] |  |
| CCc1nnc(NC(=O)c2cc(S(=O)(=O)N(C)c3ccc(OC)cc3)ccc2Cl)s1 | inconclusive [activator, single point] |  |
| Clc1ccc(/C=C/c2nc3ccccc3[nH]2)c(Cl)c1 | active: 16.4 µM |  |
| CC1(C)Cc2c(sc3nc(SCC(=O)NCc4ccccc4)n(-c4ccccc4)c(=O)c23)CS1 | inconclusive [activator, single point] |  |
| Cc1nn(C2CCS(=O)(=O)C2)c(Cl)c1/C=C/C(=O)OCC(=O)c1cc(C)n(-c2ccc(F)cc2)c1C (centres undefined) |  | inactive: 5.9% |
| COc1ccc(NC(C)=O)cc1NC(=O)CSc1nnc(-c2ccc(F)cc2)n1N | inconclusive [activator, single point] |  |
| COc1cc2cc(C(=O)N/N=C/c3ccccc3Cl)[nH]c2cc1OC | inconclusive [activator, single point] |  |
| CC1=CC(=C(C#N)c2nc3ccccc3s2)C=C(C)N1c1ccc(F)cc1 | inconclusive [activator, full curve] |  |
| O=C(Nc1ccc(Br)cn1)c1cccc(-c2cc3ccccc3oc2=O)c1 | active: 18.4 µM |  |

| SMILES | Potency | activity, positive = re-replication |
| --- | --- | --- |
| CCCCOc1cccc(-c2cc(C(=O)NNC(=S)NCC)c3ccccc3n2)c1 |  | inactive: -3.34% |
| CCOc1cc(NC(=S)NCC(C)C)c(OCC)cc1NC(=O)c1cccs1 | inconclusive [activator, partial curve, poor fit] |  |
| O=C(Nc1cccc(-c2nn[nH]n2)c1)c1cccs1 |  | inactive: 3.8% |
| c1sc2[n+](c1C13CC4CC(CC(C4)C1)C3)CCS2 | inconclusive [activator, single point] |  |
| O=S1(=O)N[C@H](c2ccccc2)C[C@H](c2ccc(C(F)(F)F)cc2)O1 |  | inactive: -13.7% |
| O=C(Nc1ccn(Cc2ccccc2F)n1)c1ccc(COc2ccccc2Cl)cc1 | inconclusive [activator, partial curve, poor fit] |  |
| Cc1ccc(S(=O)(=O)/N=C(\CCl)N2CCOCC2)cc1 | inconclusive [activator, single point] |  |
| CCOP(=O)(OCC)C(Nc1cccc(C(F)(F)F)c1)c1ccc(F)cc1 (centres undefined) | inconclusive [activator, single point] |  |
| COc1cc2ccccc2cc1C(=O)N(CCN(C)C)c1nc2ccc(C)cc2s1 | inconclusive [activator, single point] |  |
| CCOc1ccc(NC(=O)CN2CCN(Cc3c(F)cccc3F)CC2)cc1 | inconclusive [activator, single point] |  |
| Fc1ccc(-n2c(Cc3cccs3)n[nH]c2=S)cc1Cl | inconclusive [activator, single point] |  |
| COc1ccc(CNC(=O)c2cc3c(=O)n4cccc(C)c4nc3n(CC3CCCO3)c2=N)cc1 (centres undefined) | active: 8.2 µM |  |
| Cc1cc(/C=C(\C#N)C(=O)N2CCCCC2)cc(C)c1O | inconclusive [activator, single point] |  |
| O=C(NCc1cccs1)c1ccncc1 |  | inactive: -1.57% |
| COC(=O)c1ccc(-n2nnnc2SCC(=O)Nc2ccccc2F)cc1 | inconclusive [activator, partial curve, poor fit] |  |
| O=C(CSc1ccc(-c2nc3ccccc3[nH]2)cn1)N1CCN(C(=O)c2ccco2)CC1 |  | inactive: -0.852% |
| CCOC(=O)CSC1=C(C#N)C(c2ccccc2C)C2=C(CCCC2=O)N1 (centres undefined) | inconclusive [activator, partial curve] |  |
| CC(=O)c1cccc(Nc2cc(C)nc3c(C)cc(C)cc23)c1 | inconclusive [activator, single point] |  |
| Cn1c(=O)c2c(nc(CN3CCN(c4ccccc4)CC3)n2Cc2ccccc2Cl)n(C)c1=O | inconclusive [activator, partial curve, poor fit] |  |
| COc1ccccc1-c1nnc(C2CCN(S(=O)(=O)c3cccc([N+](=O)[O-])c3)CC2)o1 |  | inactive: -1.42% |
| COc1cc2c(C(=O)NCCCN3CCN(c4cccc(Cl)c4)CC3)cn(C)c(=O)c2cc1OC | inconclusive [activator, partial curve, poor fit] |  |
| CC(Oc1ccccc1)C(=O)Nc1nc(-c2ccccn2)cs1 (centres undefined) | inconclusive [activator, single point] |  |
| COc1ccc(CCNc2nc(-c3ccc(O)cc3)cs2)cc1OC | inconclusive [activator, single point] |  |
